# In the supplement of paper PMC11417369:
# ± gives the standard deviation of the averaged measurements. Some of the results follow.
# Tested on: PfAP2-LT AP2 domain (GST-tagged)
# Experiment: gcPBM binding intensity (ln(normalized median fluorescence intensity)); higher = stronger DNA binding
# Method in brief: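 GST-tagged P. falciparum DNA-binding domains, expressed in E. coli (about 25 μg on average), were applied for 1 h to an Agilent 4 × 180k array of primer-extended double-stranded 36-bp intergenic genomic probes plus negative controls. The binding buffer was 1× PBS with 1% milk, 0.2 mg/ml BSA, 0.5% salmon testes DNA and 0.03% Triton X-100. Bound protein was detected with Alexa488 anti-GST antibody and scanned at 488 nm. Binding intensity is the highest Masliner-normalised natural-log median intensity across replicate spots of either probe orientation.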
row,Sequence,gcPBM binding intensity (ln)
1,AAAAAAAAAAAAAAAACACACATTTTAAGAAAAAAA [CACACA_site2926],8.45 ± 0.57
2,TACAAAATAAATGGAACATGCAAAAAAATTGATTAA [TGCATGCA_site790],8.82 ± 0.45
3,ATATGCTATTATATATGTACACACCAATTTATTTAT [XGTACX_site8364],9.16 ± 0.38
4,TATTTAATTATTTGTAGTACGATTAATATTTAATGA [XGTACX_site3553],8.45 ± 0.34
5,ATAGAATATTAATAATTAAAAATAAAATAAAATAAA [CACACA_negctrl_site1810],8.54 ± 0.44
6,CTTAATAAGAATAAATGTACAAGGGATAAAAAATTT [XGTACX_site3213],8.71 ± 0.42
7,CAAAAGTAAGCACGCACACACAACATGAAATAAACT [CACACA_site6223],9.91 ± 0.49
8,TTAATTAATTTTTCAGTGCAAATAAAAAATATTTAA,8.12 ± 0.46
9,TATACGCAGAAACACACACACATACACCCACATACA [CACACA_site1723],10 ± 0.26
10,TATCTTATAAACTCTGCACACATAATATATTAAATG [CACACA_site8587],9.05 ± 0.36
11,AACGTTCATAATTATTGTACCCTCATTTTATTTTTT [XGTACX_site503],9.04 ± 0.52
12,AAAAATTTTAATTAGGAACACACATATATATATATA [CACACA_site9016],9.48 ± 0.42
13,ATAACTTTTTAAAAGACACACATAAGAAAAACAAAA [CACACA_site723],8.8 ± 0.52
14,ATAAAACGAAGATGTTGTACGTACAAATAAATGAAT [XGTACX_site2472],9.48 ± 0.51
15,TATATTAGAAAGGATACACACATATATATATATCTA [CACACA_site570],8.98 ± 0.34
16,ATTCATTCATATGTTACACACACACCGACACATAAA [CACACA_site5749],9.62 ± 0.16
17,TTTTGAAGTAACAAATAAATAAATAAATATATAAAA [GTGCAC_negctrl_site517],8.47 ± 0.42
18,TATTAAACTGGACACACACACACACCCATATATAAA [CACACA_site4579],10.15 ± 0.021
19,GACTTTTCAATTTTTCGTACGTATAAATTGTATACA [XGTACX_site1488],8.91 ± 0.33
20,TTTTGTTACTTTTATGTGCACTTATAAAACGAACTA [GTGCAC_site9551],8.73 ± 0.43
21,TTTTTATTGTTGTACTTATATTATTTTATTATTAAA [GTGCAC_negctrl_site200],8.65 ± 0.47
22,CTAATATATATCAATTGTACATATTGAATAAGAACA [XGTACX_site4541],8.79 ± 0.35

row,Sequence,gcPBM binding intensity (ln)
1,AAAAAATGGATGATCACACACTTCATAAAAATTGCA [CACACA_site5256],8.88 ± 0.5
2,AAAAAAAAAAAAAAATGTACCCATATATAAATATAT [XGTACX_site4061],8.52 ± 0.48
3,TTTAATTATAAAACGTGTACATAATTATAATTACAT [XGTACX_site2206],8.71 ± 0.44
4,ATCATTTGCTCACGCACACACACATAAAAAGAAAAA [CACACA_site4349],9.4 ± 0.28
5,AAAAATAGTATAAGTAGTACAACTGAAAAGTTATGT [XGTACX_site7488],9.16 ± 0.22
6,ATTATGTACAAAATGGTGCAATATTATACATATATA [GTGCAC_site9468],8.91 ± 0.42
7,AAAATAATCACATATTGTACAAAAAAATTTATTAAA [XGTACX_site3239],8.59 ± 0.66
8,ACATAATTTGATAATACACACAAATAATCTAAAATT [CACACA_site129],8.92 ± 0.48
9,TATATTAATATGAAAAGTACACATTCTATATATATA [XGTACX_site929],8.59 ± 0.43
10,AACATAATAAAAAAACGTACATAATTTTATATACAT [XGTACX_site6602],8.87 ± 0.41
11,TTTATTATCTTATTCACACACATATATAAATATGTA [CACACA_site7369],9.06 ± 0.42
12,AAAAAAAAAACATACACACACACAAATATTTATATA [CACACA_site437],9.91 ± 0.18
13,ATATATCCAATATATATATATATATATATATATATA [CACACA_negctrl_site160],9.54 ± 0.057
14,ACATTCATAAAAAAAAGTACATTTTTTATAAAAGAA [XGTACX_site6197],8.53 ± 0.49
15,TTGTTAAATATTTATAAAATGAATTTAAAATGTACT [CACACA_negctrl_site665],8.27 ± 0.37
16,AAGAAAAAATGATGAATAGAGATCAAATCTATATAT [TGCATGCA_negctrl_site29],8.69 ± 0.49
17,TAGTTTTTATATAGCACACATATTGTGATTATGTAT [CACACA_site1196],8.96 ± 0.35
18,TTTATATATAAATATATATATATATATATATATATA [TGCATGCA_negctrl_site121],9.265 ± 0.05
19,ATAATATAGAAACACACACACATATATATATACATT [CACACA_site555],9.77 ± 0.3
20,AAATTATGTGCCAATACACACACACCGATATATATA [CACACA_site8050],9.92 ± 0.21
21,AATTCATTTTACCCATGTACACAATTATATTTTATA [XGTACX_site4127],8.85 ± 0.53
22,TTCTTAGATTGTACAGTACACACCTTTAGAATGTTA [CACACA_site212],8.87 ± 0.45
